Source: the supplement of paper PMC12217912
Some of the results follow. Sequences were assembled here from the parent chain. Inactive controls read about 0.05.

B1: TEV protease; numbered along this chain (parent)
chain: MGESLFKGPRDYNPISSSICHLTNESDGHTTSLYGIGFGPFIITNKHLFRRNNGTLVVQSLHGVFKVKDTTTLQQHLVDGRDMIIIRMPKDFPPFPQKLKFREPQREERICLVTTNFQTKSMSSMVSDTSCTFPSGDGIFWKHWIQTKDGQCGSPLVSTRDGFIVGIHSASNFTNTNNYFTSVPKNFMELLTNQEAQQWVSGWRLNADSVLWGGHKVFMVKPEEPFQPVKEATQL

Variants of: B1
Test: raw area under fraction-flipped curve 0-4 h after induction (AUC4h, not background-subtracted), DNA-recorder readout of cleavage of the substrate (dimensionless); higher = more cleavage of the substrate by the protease variant
Details: temperature: 34 °C; time window: 0-4 h after rhamnose induction
Experimental: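 In vivo DNA recorder in E. coli TOP10(DE3) ΔrhaA at 34 °C. Each TEVp single-site mutant (parent TEVp 0) is paired with a single-site variant of the 7-mer TEVs (canonical ENLYFQ|S). The substrate sits between flexible linkers in a Bxb1-sfGFP-TEVs-SsrA fusion, so cleavage stabilises Bxb1 and speeds flipping of a recombination array, read by NGS. The value is the raw area under the fraction-flipped curve over 0-4 h after rhamnose induction (AUC4h), with ≥20 reads per time point. It is not background-subtracted; inactive controls average about 0.047.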
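Also: Bxb1 expression induced with 0.2% (w/v) L-rhamnose at OD600 near 0.5, cultures sampled hourly, flipped fraction per protease–substrate barcode pair counted by paired-end Illumina sequencing.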

| Variant | area with substrate ENLYFQA | area with substrate ENLYFQC | area with substrate ENLYFQE | area with substrate ENLYFQH | area with substrate ENLYFQI | area with substrate ENLYFQK | area with substrate ENLYFQM | area with substrate ENLYFQN | area with substrate ENLYFQP | area with substrate ENLYFQR | area with substrate ENLYFQS | area with substrate ENLYFQT | area with substrate ENLYFQV | area with substrate ENLYFQW | area with substrate ENLYFQY | area with substrate ENLYFQF | area with substrate ENLYFQG | area with substrate ENLYFQL | area with substrate ENLYFQD | area with substrate ENLYFQQ |
| --- | --- | --- | --- | --- | --- | --- | --- | --- | --- | --- | --- | --- | --- | --- | --- | --- | --- | --- | --- | --- |
| MGESLFKGPRDYNPISSSICHLTNESDGHTTSLYGIGFGPFIITNKHLFRRNNGTLVVQSLHGVFKVKDTTTLQQHLVDGRDMIIIRMPKDFPPFPQKLKFREPQREERICLVTTEFQTKSMSSMVSDTSCTFPSGDGIFWKHWIQTKDGQCGSPLVSTRDGFIVGIHSASNFTNTNNYFTSVPKNFMELLTNQEAQQWVSGWRLNADSVLWGGHKVFMVKPEEPFQPVKEATQL [N116E] | 0.0875 | 0.105 | 0.0773 | 0.0526 | 0.0584 | 0.0644 | 0.0939 | 0.0702 | 0.059 | 0.0588 | 0.0982 | 0.0897 | 0.0588 | 0.0613 | 0.0709 |  |  |  |  |  |
| MGESLFKGPRDYNPISSSICHLTNESDGHTTSLYGIGFGPFIITNKHLFRRNNGTLVVQSLHGVFKVKDTTTLQQHDVDGRDMIIIRMPKDFPPFPQKLKFREPQREERICLVTTNFQTKSMSSMVSDTSCTFPSGDGIFWKHWIQTKDGQCGSPLVSTRDGFIVGIHSASNFTNTNNYFTSVPKNFMELLTNQEAQQWVSGWRLNADSVLWGGHKVFMVKPEEPFQPVKEATQL [L77D] | 0.0863 | 0.0657 |  | 0.0668 | 0.0574 | 0.0737 | 0.0537 | 0.0824 |  | 0.0592 | 0.0676 | 0.0524 | 0.0617 | 0.063 | 0.0514 | 0.0542 | 0.0683 | 0.055 |  |  |
| MGESLFKGPRDYNPISSSICHLTNESDGHTTSLYGIGFGPFIITNKHLFRRNNYTLVVQSLHGVFKVKDTTTLQQHLVDGRDMIIIRMPKDFPPFPQKLKFREPQREERICLVTTNFQTKSMSSMVSDTSCTFPSGDGIFWKHWIQTKDGQCGSPLVSTRDGFIVGIHSASNFTNTNNYFTSVPKNFMELLTNQEAQQWVSGWRLNADSVLWGGHKVFMVKPEEPFQPVKEATQL [G54Y] | 0.0613 | 0.0885 |  | 0.0605 | 0.0557 | 0.0576 | 0.0612 |  | 0.0479 | 0.0668 | 0.0726 | 0.0588 | 0.0769 | 0.0658 | 0.0585 | 0.0514 | 0.0689 | 0.0547 |  |  |
| MGESLFKGPRDYNPISSSICHLTNESDGHTTSLYGIGFGPFIITNKHLFRRNNGTLVVQSLHGVFKVKDTTTLQQHLVDGRDMIIIRMPKDFPPFPQKLKFREPQREERICLVTTNFQTKSMSSMVSDTSCTFPSGDGIFWKHWIQTKDGCCGSPLVSTRDGFIVGIHSASNFTNTNNYFTSVPKNFMELLTNQEAQQWVSGWRLNADSVLWGGHKVFMVKPEEPFQPVKEATQL [Q151C] | 0.096 | 0.0977 | 0.0486 | 0.0701 | 0.0552 | 0.0575 | 0.0718 | 0.0891 | 0.0526 | 0.0467 | 0.0924 | 0.0717 |  |  | 0.0527 |  | 0.105 | 0.0576 | 0.0682 |  |
| MGESLFKGPRDYNPASSSICHLTNESDGHTTSLYGIGFGPFIITNKHLFRRNNGTLVVQSLHGVFKVKDTTTLQQHLVDGRDMIIIRMPKDFPPFPQKLKFREPQREERICLVTTNFQTKSMSSMVSDTSCTFPSGDGIFWKHWIQTKDGQCGSPLVSTRDGFIVGIHSASNFTNTNNYFTSVPKNFMELLTNQEAQQWVSGWRLNADSVLWGGHKVFMVKPEEPFQPVKEATQL [I15A] | 0.0972 | 0.0788 | 0.0674 | 0.0803 | 0.0532 | 0.0453 | 0.0735 | 0.0746 |  | 0.059 | 0.0923 | 0.0608 |  |  | 0.0736 | 0.0698 | 0.0849 | 0.0505 | 0.0634 | 0.0671 |
| MGESLFKGPRDYNPISSSICHLTNESDGHTTSLYGIGFGPFIITNKHLFRRNNGTLVVQSLHGVFKVKDTTTLQQHLVDGRDMIIIRMPKDFPPFPQKLKFREPQREERICLVTTNFQTKSMSSMVADTSCTFPSGDGIFWKHWIQTKDGQCGSPLVSTRDGFIVGIHSASNFTNTNNYFTSVPKNFMELLTNQEAQQWVSGWRLNADSVLWGGHKVFMVKPEEPFQPVKEATQL [S127A] | 0.129 | 0.132 | 0.0526 | 0.0789 | 0.0602 | 0.0698 | 0.0881 | 0.101 | 0.0607 | 0.0737 | 0.116 | 0.0699 | 0.0613 | 0.0645 | 0.077 |  | 0.0927 | 0.0564 | 0.0687 |  |
| MGESLFKGPRDYNPISSSICHLTNESDGHTTSLYGIGFGPFIITNKHLFRRNNGTLVVQSLHGVFKVKDTTTLQQHLVDGRDMIIIRMPKDFPPFPQKLKFREPQREERICLVTTNFQTKSMSSMVSDTSCTFPSGDGIFWKHWIQTKDGLCGSPLVSTRDGFIVGIHSASNFTNTNNYFTSVPKNFMELLTNQEAQQWVSGWRLNADSVLWGGHKVFMVKPEEPFQPVKEATQL [Q151L] | 0.0785 | 0.0976 | 0.0626 |  | 0.0475 | 0.0486 |  | 0.076 | 0.0384 | 0.0573 | 0.0852 | 0.0735 | 0.0613 |  | 0.0572 |  | 0.0781 |  | 0.0813 | 0.0583 |
| MGESLFKGPRDYNPISSSICHLTLESDGHTTSLYGIGFGPFIITNKHLFRRNNGTLVVQSLHGVFKVKDTTTLQQHLVDGRDMIIIRMPKDFPPFPQKLKFREPQREERICLVTTNFQTKSMSSMVSDTSCTFPSGDGIFWKHWIQTKDGQCGSPLVSTRDGFIVGIHSASNFTNTNNYFTSVPKNFMELLTNQEAQQWVSGWRLNADSVLWGGHKVFMVKPEEPFQPVKEATQL [N24L] | 0.0726 | 0.127 | 0.0414 |  | 0.0599 | 0.0619 | 0.0905 | 0.0736 |  | 0.0433 | 0.102 | 0.0675 | 0.0667 | 0.0742 | 0.0834 | 0.0968 | 0.0756 | 0.0535 | 0.0675 |  |
